# The BET-seq Pho4 binding data (Le et al. 2018)
# The list shows a part of the results. The energies were worked out here from pooled read counts, against the library average; single values are noisy.
# Target: T1, Pho4 (S. cerevisiae) (UniProt P07270)
# T1 sequence: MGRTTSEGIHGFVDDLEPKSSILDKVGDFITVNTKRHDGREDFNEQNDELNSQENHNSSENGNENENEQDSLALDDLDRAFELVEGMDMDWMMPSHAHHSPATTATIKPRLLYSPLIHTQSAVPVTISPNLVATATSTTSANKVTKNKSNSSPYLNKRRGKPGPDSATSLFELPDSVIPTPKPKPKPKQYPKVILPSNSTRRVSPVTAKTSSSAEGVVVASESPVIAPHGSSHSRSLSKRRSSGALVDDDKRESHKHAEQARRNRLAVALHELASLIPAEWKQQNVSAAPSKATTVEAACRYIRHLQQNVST
# Experiment: relative binding free energy (BET-seq); higher = weaker binding
# Settings: reference: library average
row,Sequence,relative binding free energy
1,CTTTTCACGTGGAAGG,0.13 kcal/mol
2,AAGGACACGTGGGAGG,-0.03 kcal/mol
3,GAATGCACGTGTTGGG,0.08 kcal/mol
4,GGTTGCACGTGGAGTC,0.14 kcal/mol
5,TGTCACACGTGGGGTC,-0.08 kcal/mol
6,CAGGTCACGTGATTTT,0.21 kcal/mol
7,GGATTCACGTGTGGGG,0.31 kcal/mol
8,GGTCACACGTGATTGT,0.23 kcal/mol
9,TTTCGCACGTGCATGG,-0.11 kcal/mol
10,ATTGGCACGTGGCATG,-0.36 kcal/mol
11,GTGGCCACGTGGGGCA,-0.27 kcal/mol
12,TTGGTCACGTGTGACG,0.23 kcal/mol
13,GGTTGCACGTGTTTAG,0.08 kcal/mol
14,TGTTCCACGTGTATTG,0.03 kcal/mol
15,TAGTCCACGTGTTATG,0.12 kcal/mol
16,GTGATCACGTGGCGGA,0.07 kcal/mol
17,TTTCGCACGTGGTTAG,-0.23 kcal/mol
18,TGCGGCACGTGTATAG,-0.05 kcal/mol
19,ATTAGCACGTGGAAAG,0.1 kcal/mol
20,TAGTACACGTGCTTTT,-0.12 kcal/mol
21,AGGAGCACGTGTTTAA,-0.11 kcal/mol
22,CATATCACGTGGTATG,0.1 kcal/mol
23,CGGTGCACGTGAATGC,0.29 kcal/mol
24,AATGGCACGTGTCGGG,-0.09 kcal/mol
25,CTTTGCACGTGTCTGG,0 kcal/mol
26,TTAAGCACGTGGGTAT,-0.2 kcal/mol

row,Sequence,relative binding free energy
1,TTTGTCACGTGTGAAA,0.18 kcal/mol
2,TTGCGCACGTGTAGCG,-0.04 kcal/mol
3,AAGTTCACGTGCTGTA,0.34 kcal/mol
4,CTTGTCACGTGATAAG,0.12 kcal/mol
5,AAAATCACGTGCGGTT,0.24 kcal/mol
6,TTCGGCACGTGGTATA,-0.09 kcal/mol
7,TGTGGCACGTGTTGCT,-0.05 kcal/mol
8,ATTAGCACGTGCGGTT,-0.15 kcal/mol
9,TTTCTCACGTGCGGTG,0.21 kcal/mol
10,AGTGTCACGTGATACG,0.21 kcal/mol
11,TATAGCACGTGATTTG,0.12 kcal/mol
12,TAAGACACGTGGGTGG,-0.17 kcal/mol
13,TGGTTCACGTGGACGT,0.32 kcal/mol
14,TAGGGCACGTGGTATT,-0.27 kcal/mol
15,TGTTACACGTGGCAGT,0.03 kcal/mol
16,AGGTTCACGTGTGTTA,0.26 kcal/mol
17,GGCTGCACGTGGTCGG,-0.11 kcal/mol
18,AGTTTCACGTGGGCGG,0.1 kcal/mol
19,AGTATCACGTGAGGTA,0.26 kcal/mol
20,TTTGTCACGTGAGTCC,0.35 kcal/mol
21,GAAAGCACGTGTTGGT,-0.11 kcal/mol
22,TGAGCCACGTGGTTTT,-0.03 kcal/mol
23,CGTGTCACGTGCGCGG,-0.06 kcal/mol
24,GTTATCACGTGTATCG,0.24 kcal/mol
25,GGTTGCACGTGAGAGG,0.22 kcal/mol
26,ATTGACACGTGATGCG,0.06 kcal/mol

row,Sequence,relative binding free energy
1,GGATGCACGTGCGGGT,-0.01 kcal/mol
2,TAGGGCACGTGCGTCG,-0.22 kcal/mol
3,AATGTCACGTGTGATC,0.3 kcal/mol
4,TGGTCCACGTGCTTGT,0 kcal/mol
5,AGAGGCACGTGAATTA,0.22 kcal/mol
6,TTTGACACGTGCGGTG,0.06 kcal/mol
7,GCGGACACGTGGTAGT,-0.01 kcal/mol
8,CGGGTCACGTGTGTGC,0.08 kcal/mol
9,GAGGTCACGTGTAATG,0.45 kcal/mol
10,TAGGCCACGTGTGTGG,0.09 kcal/mol
11,GCTGGCACGTGTGGAT,0.01 kcal/mol
12,TGGTGCACGTGTCGCG,-0.01 kcal/mol
13,TTGGCCACGTGATGGC,0.17 kcal/mol
14,GATGGCACGTGAAAGT,0.21 kcal/mol
15,GTGCTCACGTGTGCGT,0.13 kcal/mol
16,GTAGACACGTGGTGAG,-0.06 kcal/mol
17,TATGTCACGTGCGAGT,0.04 kcal/mol
18,GTGGACACGTGTAGCA,0.14 kcal/mol
19,TTACACACGTGTTTGG,0.06 kcal/mol
20,GGGGGCACGTGGCGCA,-0.2 kcal/mol
21,TATTTCACGTGTGACT,0.32 kcal/mol
22,GCTTTCACGTGAGGGT,0.47 kcal/mol
23,TGGTTCACGTGGTTTG,0.27 kcal/mol
24,AATATCACGTGGAGTA,0.18 kcal/mol
25,TTTTGCACGTGCGTGT,-0.05 kcal/mol
26,TGATGCACGTGCTTTG,-0.08 kcal/mol

row,Sequence,relative binding free energy
1,GGGGACACGTGGTCAG,-0.07 kcal/mol
2,CGTTTCACGTGGTGCG,0.23 kcal/mol
3,TGCGGCACGTGAGATT,0.15 kcal/mol
4,CGATTCACGTGGTGCT,0.26 kcal/mol
5,CTTTACACGTGAGGTG,0.31 kcal/mol
6,ATAGGCACGTGCTGTG,-0.16 kcal/mol
7,GGGATCACGTGCGTTA,0.04 kcal/mol
8,CTTTCCACGTGGATGT,0.18 kcal/mol
9,GCAGACACGTGTGGTG,-0.06 kcal/mol
10,TCGCTCACGTGAGGTG,0.49 kcal/mol
11,AGTTACACGTGGTTAT,0.07 kcal/mol
12,TCTCACACGTGGGTGG,-0.03 kcal/mol
13,ATGGTCACGTGATGTT,0.21 kcal/mol
14,AAATTCACGTGGTGTA,0.23 kcal/mol
15,CGGGGCACGTGTGTAT,-0.16 kcal/mol
16,AGTAGCACGTGGAGCT,-0.08 kcal/mol
17,GGTGTCACGTGGTTGC,0.13 kcal/mol
18,TTGAGCACGTGGTTGA,-0.06 kcal/mol
19,TTAAGCACGTGAGAGG,0.15 kcal/mol
20,TGAATCACGTGTTGCG,0.09 kcal/mol
21,TCTGGCACGTGAAGTG,0.06 kcal/mol
22,TAGTGCACGTGTGTCT,-0.01 kcal/mol
23,GAGTACACGTGGGAAT,0.04 kcal/mol
24,TTCTTCACGTGTGAAG,0.31 kcal/mol
25,TTGGTCACGTGTTTCA,0.13 kcal/mol
26,CGCGGCACGTGGAAGG,-0.15 kcal/mol

row,Sequence,relative binding free energy
1,TGATTCACGTGCGTTT,0.26 kcal/mol
2,TGTTTCACGTGTCAGA,0.38 kcal/mol
3,GGTATCACGTGTGGGC,0.21 kcal/mol
4,TCCGGCACGTGGTGGT,-0.08 kcal/mol
5,GGGTTCACGTGTTGAC,0.27 kcal/mol
6,GATGCCACGTGTGTTG,0.01 kcal/mol
7,TGTAGCACGTGGTATT,-0.14 kcal/mol
8,TTTGACACGTGAATTT,0.3 kcal/mol
9,GCGTTCACGTGCTGGT,0.28 kcal/mol
10,CGGGTCACGTGCGTAA,0.18 kcal/mol
11,CGGTCCACGTGAGGGT,0.08 kcal/mol
12,TTGGGCACGTGAGGTT,0.18 kcal/mol
13,TGGGGCACGTGCGTAA,-0.21 kcal/mol
14,AATAGCACGTGCGGGA,-0.04 kcal/mol
15,TTGATCACGTGCGTTA,-0.06 kcal/mol
16,GTGAGCACGTGTAATT,-0.01 kcal/mol
17,TTTCTCACGTGCTTGG,0.14 kcal/mol
18,TGTGGCACGTGGGACT,-0.16 kcal/mol
19,AGATTCACGTGTCGGT,0.29 kcal/mol
20,TGGAACACGTGGGTAC,-0.07 kcal/mol
21,CGCTTCACGTGTATGG,0.32 kcal/mol
22,GTCGTCACGTGAGTTG,0.39 kcal/mol
23,AGTATCACGTGGGGGC,0 kcal/mol
24,TGTAGCACGTGAAAAT,0.24 kcal/mol
25,TAGTCCACGTGTTGGA,0.01 kcal/mol
26,TGTCGCACGTGAGTGC,0.25 kcal/mol

row,Sequence,relative binding free energy
1,ATTCGCACGTGGAGGG,-0.13 kcal/mol
2,TGAGTCACGTGTAGGG,0.04 kcal/mol
3,TTACTCACGTGTAGGG,0.12 kcal/mol
4,TTCAGCACGTGCGTGG,-0.15 kcal/mol
5,TGGGACACGTGTCGAT,0.09 kcal/mol
6,GGTGGCACGTGATCGA,-0.09 kcal/mol
7,ATTGGCACGTGTTTAT,0 kcal/mol
8,GTATCCACGTGTGTAT,0.11 kcal/mol
9,ATTTCCACGTGGTGTT,0 kcal/mol
10,TAGTTCACGTGGACTA,0.26 kcal/mol
11,TGTGCCACGTGTAAAT,0.23 kcal/mol
12,GAATTCACGTGATGGA,0.4 kcal/mol
13,TACTTCACGTGGGATT,0.19 kcal/mol
14,AGTGGCACGTGGGGGA,-0.21 kcal/mol
15,ACTTTCACGTGATGCT,0.37 kcal/mol
16,TTATTCACGTGGTTTC,0.31 kcal/mol
17,AATATCACGTGAAGGT,0.36 kcal/mol
18,TGTTTCACGTGAGACA,0.33 kcal/mol
19,TTGTGCACGTGACCGT,0.05 kcal/mol
20,TTGAGCACGTGGACTG,-0.14 kcal/mol
21,GGTCTCACGTGTCGGT,0.24 kcal/mol
22,GGGACCACGTGTGTGT,0 kcal/mol
23,ATGTTCACGTGGGGGC,0.13 kcal/mol
24,TAGATCACGTGTAGGG,0.23 kcal/mol
25,AGTGTCACGTGGTACG,-0.01 kcal/mol
26,AATAGCACGTGAGCGG,0.14 kcal/mol

row,Sequence,relative binding free energy
1,ATTGGCACGTGGCTTT,-0.2 kcal/mol
2,TTTCTCACGTGATAGA,0.36 kcal/mol
3,GGGAGCACGTGAGTTT,0.25 kcal/mol
4,AAATCCACGTGAGGGT,0.25 kcal/mol
5,TCATACACGTGTGGTA,-0.04 kcal/mol
6,TTAGACACGTGCGGCG,-0.03 kcal/mol
7,GTGGCCACGTGGGCTG,-0.17 kcal/mol
8,GTTAACACGTGTTATC,0.16 kcal/mol
9,TTTCACACGTGGTGGT,0.1 kcal/mol
10,GCATGCACGTGCGGGG,-0.07 kcal/mol
11,AAAATCACGTGGGTGG,0.08 kcal/mol
12,GGGGACACGTGTAAGT,0.14 kcal/mol
13,GTATGCACGTGGTTTC,0.13 kcal/mol
14,GACGACACGTGGTTGT,0.13 kcal/mol
15,GTTCGCACGTGGTGAG,-0.02 kcal/mol
16,TGGGTCACGTGAAGAG,0.28 kcal/mol
17,TGTGCCACGTGCATGG,-0.22 kcal/mol
18,TAGAGCACGTGGTAAT,-0.17 kcal/mol
19,CTGGTCACGTGACGTT,0.3 kcal/mol
20,AAGGTCACGTGGTAGG,0.07 kcal/mol
21,CTGTGCACGTGCGTTT,-0.08 kcal/mol
22,GGGGACACGTGTAAAT,0.21 kcal/mol
23,GCTTGCACGTGGGTCG,-0.14 kcal/mol
24,CTTATCACGTGGTGGT,0.07 kcal/mol
25,TTACGCACGTGGCGGT,-0.11 kcal/mol
26,AGTTCCACGTGTTTAT,0.01 kcal/mol

row,Sequence,relative binding free energy
1,AGGGGCACGTGCTGTG,-0.21 kcal/mol
2,ATTTGCACGTGTACTT,0.13 kcal/mol
3,ATATGCACGTGGAGTA,-0.18 kcal/mol
4,TCATACACGTGTTTTT,0.16 kcal/mol
5,TTAGGCACGTGGAAAG,-0.04 kcal/mol
6,GGGTTCACGTGAGTTT,0.46 kcal/mol
7,CGATTCACGTGTGGTT,0.38 kcal/mol
8,TTTGCCACGTGTGTGA,-0.16 kcal/mol
9,TTGAACACGTGTCGTA,0.1 kcal/mol
10,GTTTTCACGTGTCAAG,0.31 kcal/mol
11,GGAGGCACGTGTGAAT,0 kcal/mol
12,TGGGTCACGTGTATTG,0.1 kcal/mol
13,GGAGACACGTGGAATG,0.12 kcal/mol
14,CTTGGCACGTGATGGG,-0.04 kcal/mol
15,CAGGTCACGTGGACTG,0.16 kcal/mol
16,CTGAGCACGTGGGATT,-0.02 kcal/mol
17,GGTGGCACGTGCATAG,-0.26 kcal/mol
18,GTGGACACGTGCGATG,0.02 kcal/mol
19,GTGTACACGTGGCTAG,-0.04 kcal/mol
20,ATGTGCACGTGGGCTA,-0.1 kcal/mol
21,ATGTTCACGTGTCTGT,0.23 kcal/mol
22,TGTTGCACGTGTTGTC,0.07 kcal/mol
23,ATTGGCACGTGTGTAC,-0.1 kcal/mol
24,GAATTCACGTGGTGGA,0.21 kcal/mol
25,TTTTGCACGTGGGGTT,-0.09 kcal/mol
26,GGATACACGTGGTGTA,-0.17 kcal/mol

row,Sequence,relative binding free energy
1,AAATCCACGTGGTGGG,-0.07 kcal/mol
2,AGGATCACGTGGGGGA,-0.07 kcal/mol
3,TATTTCACGTGAGGTG,0.39 kcal/mol
4,GTTTGCACGTGCTATT,0.08 kcal/mol
5,TATTTCACGTGGGCTG,0.17 kcal/mol
6,TATGGCACGTGTAGAC,0.09 kcal/mol
7,GCTGTCACGTGTTATT,0.26 kcal/mol
8,CATTGCACGTGGGTTG,-0.14 kcal/mol
9,TTATACACGTGTTCTT,0.06 kcal/mol
10,ATGGGCACGTGAGCCG,0.01 kcal/mol
11,GAGTTCACGTGGCTGA,0.44 kcal/mol
12,GTGGGCACGTGTATTT,0.07 kcal/mol
13,TTAATCACGTGTTGAG,0.06 kcal/mol
14,GGTATCACGTGGGAGT,0.02 kcal/mol
15,AGAATCACGTGGGTAT,0.06 kcal/mol
16,TTTAACACGTGGCAGG,-0.2 kcal/mol
17,TGTTACACGTGTATGT,0.08 kcal/mol
18,TCTGACACGTGTGGTA,0.21 kcal/mol
19,GGTGACACGTGTAGTA,-0.09 kcal/mol
20,GTTTCCACGTGGATGT,0.1 kcal/mol
21,ATTTCCACGTGGGGTG,-0.16 kcal/mol
22,ATTATCACGTGTTTAT,0.19 kcal/mol
